According to the BET-seq Pho4 binding data (Le et al. 2018):
The list shows a part of the results. These are noisy estimates, calculated here from bound and input reads.

Molecular target: T1, Pho4 (S. cerevisiae) (UniProt P07270)
T1 sequence: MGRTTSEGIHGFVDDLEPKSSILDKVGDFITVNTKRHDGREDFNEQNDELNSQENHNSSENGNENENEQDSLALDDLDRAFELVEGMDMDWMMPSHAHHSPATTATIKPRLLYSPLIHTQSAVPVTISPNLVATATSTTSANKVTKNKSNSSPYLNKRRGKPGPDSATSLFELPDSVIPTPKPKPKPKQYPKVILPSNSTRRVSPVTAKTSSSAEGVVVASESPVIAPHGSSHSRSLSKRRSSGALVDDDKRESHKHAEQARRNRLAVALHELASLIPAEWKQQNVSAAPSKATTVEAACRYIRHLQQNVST
Assay: relative binding free energy (BET-seq); higher = weaker binding
Details: reference: library average

Relative binding free energy, 0.07 kcal/mol:
CAAGTCACGTGGTTTG
CTGGACACGTGGTTTT
TGAGTCACGTGGGCGG
TTGTGCACGTGTGTTT
TGGGACACGTGTATTA

Relative binding free energy, -0.27 kcal/mol:
ATAGGCACGTGGGTTA

Relative binding free energy, -0.19 kcal/mol:
AGAGGCACGTGGGAGC
TAGGCCACGTGGGGTT
ATAGGCACGTGGTGCA

Relative binding free energy, 0.26 kcal/mol:
GGTAGCACGTGAGAGA
GTTTTCACGTGCTTTG

Relative binding free energy, -0.04 kcal/mol:
GCGTACACGTGGGCGT
TAATACACGTGCTTGG
TTAGACACGTGGATTG
CGAGTCACGTGGCGGT
GGGCGCACGTGGTAGA
TATGGCACGTGACTAG
GTTAGCACGTGGTAGA

Relative binding free energy, -0.02 kcal/mol:
AGGGCCACGTGGTTTT
ACGGGCACGTGGTTGC

Relative binding free energy, 0.14 kcal/mol:
TGAATCACGTGTCTTT
GCATGCACGTGAGGGG
GCGTCCACGTGTGGGT
GTAAACACGTGAGTGG

Relative binding free energy, -0.09 kcal/mol:
TTGGGCACGTGTGTGG
TTATGCACGTGATGCT

Relative binding free energy, 0.42 kcal/mol:
GAATTCACGTGTTGGT

Relative binding free energy, 0.22 kcal/mol:
GTGTTCACGTGCGCGT
TTGGACACGTGAGTGA

Relative binding free energy, 0.38 kcal/mol:
TTTGTCACGTGACTAT
GGTATCACGTGGATAA

Relative binding free energy, 0.05 kcal/mol:
CTTTTCACGTGGTCTG
GCCGACACGTGTGGGG
TAGGACACGTGTGGGG
GAAGGCACGTGTGGCA

Relative binding free energy, 0.45 kcal/mol:
TTCTTCACGTGATTCT

Relative binding free energy, 0.02 kcal/mol:
TGTGACACGTGTCTTT
TGTGACACGTGACGGT
CTGGACACGTGTAGTT
AGGGTCACGTGTTAGG
GTAAGCACGTGTCGTT

Relative binding free energy, 0.35 kcal/mol:
TTGATCACGTGAGTCT

Relative binding free energy, -0.17 kcal/mol:
CAAAGCACGTGGTGGG
CTGTGCACGTGGGAGG
TTTTGCACGTGGTGCA
AGTAACACGTGGTATG

Relative binding free energy, 0.32 kcal/mol:
GATTTCACGTGTCGGA
CTTGTCACGTGAGTTT

Relative binding free energy, -0.3 kcal/mol:
GGCGGCACGTGGGACG

Relative binding free energy, 0.04 kcal/mol:
TGTTACACGTGCTTGG
AGGTACACGTGTTTGG
AAGGTCACGTGGGCGC
CTTGTCACGTGTGCTT
ATGGACACGTGGTGTA

Relative binding free energy, -0.13 kcal/mol:
TTGGACACGTGGCCGG
GAACGCACGTGGAGGG
GGGGGCACGTGTACTA
CGTGGCACGTGGTGGT
AAGGGCACGTGTCTGA
TTTGGCACGTGCGGCG

Relative binding free energy, 0.27 kcal/mol:
TGTTACACGTGAGTAT
GGTTGCACGTGAAGGG
TGATTCACGTGTTCGG

Relative binding free energy, 0.01 kcal/mol:
CCTGTCACGTGTGGGG
AAAGTCACGTGTATTA
ACATGCACGTGTTTTG
TTTGTCACGTGCATGA
ATTGTCACGTGGGGTT
TATTGCACGTGTCCGG

Relative binding free energy, -0.21 kcal/mol:
TTAAGCACGTGGGGGA
GGCACCACGTGGGGGA
ATACGCACGTGTATGG

Relative binding free energy, 0.34 kcal/mol:
GATGTCACGTGAGGTC
TGGATCACGTGATCGG

Relative binding free energy, 0.03 kcal/mol:
GATCGCACGTGTTGTG
TCTTGCACGTGTTAAT
GCTTGCACGTGGCTGT
TTTTACACGTGCTGCT
GATGTCACGTGGGGAT

Relative binding free energy, -0.01 kcal/mol:
TGGGTCACGTGGCCTG
GTATACACGTGGTTGT
AGGGGCACGTGATGTG
GCGTGCACGTGTATAG
AACGGCACGTGTGGGT
TTATACACGTGGGTAT

Relative binding free energy, -0.1 kcal/mol:
CTGTGCACGTGTGCAT
TTTACCACGTGGTGTT
TGGGGCACGTGTGTCG

Relative binding free energy, -0.26 kcal/mol:
CAGGGCACGTGGGGGC

Relative binding free energy, 0.16 kcal/mol:
TGAGTCACGTGTAAGT
CGGTTCACGTGCCGGG
AGGCGCACGTGAGATG
GGTGTCACGTGCAGGC
ATTTGCACGTGTAAGT
GGTAACACGTGTAGTA

Relative binding free energy, 0.4 kcal/mol:
GAAGTCACGTGAGTGT

Relative binding free energy, 0.13 kcal/mol:
GAGGTCACGTGGGATG
CAGTTCACGTGGGGCG
TCGAACACGTGTTTTT
GTAATCACGTGTCAGT

Relative binding free energy, -0.16 kcal/mol:
ATTAGCACGTGGCGGG
ACTGGCACGTGCGGTG
TTGTGCACGTGGGGGG
TTGACCACGTGTTGTT

Relative binding free energy, 0.21 kcal/mol:
ATCGTCACGTGTGATG
TCGTTCACGTGTGGGA
TTTTTCACGTGCTTGC
TTTGTCACGTGACATT

Relative binding free energy, 0.46 kcal/mol:
GCGTTCACGTGAGGGC

Relative binding free energy, -0.11 kcal/mol:
CAAAGCACGTGTGGTT
TAATGCACGTGGGAAT
TAACGCACGTGTTTGG
GGGGGCACGTGGGAAT

Relative binding free energy, 0 kcal/mol:
TTCTGCACGTGGCGCG
TGATACACGTGTTTCT
ACGGGCACGTGTGGGT
GTCGTCACGTGGAGAG
AAGGTCACGTGGGTTA
CGTTACACGTGTGCGG
TTGTCCACGTGTTGCT

Relative binding free energy, 0.24 kcal/mol:
ATATTCACGTGTGATA
TGTATCACGTGATGAG
GTGACCACGTGATGGG
GATGTCACGTGTTGCG

Relative binding free energy, -0.31 kcal/mol:
TGCGCCACGTGGGTGT

Relative binding free energy, -0.25 kcal/mol:
CGTCGCACGTGGGTTT
GGGCCCACGTGCGGGG

Relative binding free energy, -0.28 kcal/mol:
TAGGCCACGTGGTGTA

Relative binding free energy, 0.08 kcal/mol:
TTAGACACGTGTTGAA
TTATACACGTGCCGTG
GGGGGCACGTGATGGA

Relative binding free energy, -0.14 kcal/mol:
ATAGGCACGTGCTAGT
ATAAGCACGTGGGGCG
ACCTGCACGTGTGGGT
GGTCGCACGTGGGAAG
AATGGCACGTGGGGAA

Relative binding free energy, 0.19 kcal/mol:
TTATTCACGTGCATGG
GCTTGCACGTGTGGAA

Relative binding free energy, -0.15 kcal/mol:
AAATGCACGTGGGTAA
CGCTGCACGTGGGGGT
AGGGGCACGTGCAGGG

Relative binding free energy, 0.23 kcal/mol:
GTCTTCACGTGTAGTT
TAGTACACGTGTTCGA
TGTCGCACGTGAATGT
AATTTCACGTGTACTG
AGTTACACGTGCTTTT
GAATTCACGTGGTATT

Relative binding free energy, 0.09 kcal/mol:
TGAAGCACGTGAGTAG
TTGTACACGTGCCAGT
TTGGCCACGTGTAATG
GAAGTCACGTGTCGGG
TTAGACACGTGTGAAG

Relative binding free energy, -0.05 kcal/mol:
TAAAGCACGTGTGTGA
TGTTGCACGTGTCTAG
TGGAGCACGTGCGTAT
TGTAGCACGTGCTTTA
TGCGTCACGTGACGGG

Relative binding free energy, -0.12 kcal/mol:
AAGAACACGTGGTGTT

Relative binding free energy, 0.18 kcal/mol:
GAGTTCACGTGGTCAT
CGTTTCACGTGGGTGG
AATGTCACGTGGAGCG
GTATTCACGTGTTATT
AGGATCACGTGGTTGT
GCGTACACGTGTAGGA

Relative binding free energy, 0.25 kcal/mol:
ATTTTCACGTGTAAGT
AATTACACGTGTAGGT
TGTTTCACGTGGGGCC

Relative binding free energy, 0.1 kcal/mol:
GTTGACACGTGTGTAG
CTAGTCACGTGTTTTG
TTAAGCACGTGTGGAA
GATTGCACGTGGATGG
ATTATCACGTGTCTTG
TGAAGCACGTGTGAGA
GTAATCACGTGTATTG

Relative binding free energy, 0.12 kcal/mol:
GACGGCACGTGTTTAT
ATGATCACGTGGTGCG
CGTTACACGTGATTTT
CTATTCACGTGGCGGG
TGTTACACGTGTGGGC
CTGGTCACGTGATGAT
GTTTGCACGTGTACAT

Relative binding free energy, 0.36 kcal/mol:
ATATTCACGTGTAATT

Relative binding free energy, 0.2 kcal/mol:
GTATGCACGTGATATA
GTAGCCACGTGAGGGT
AGTGACACGTGAAGTT

Relative binding free energy, 0.28 kcal/mol:
TTTTTCACGTGTATCA

Relative binding free energy, -0.34 kcal/mol:
CTTGGCACGTGGTCGG

Relative binding free energy, -0.06 kcal/mol:
TTAAGCACGTGTACTG
GTAACCACGTGTGTGG
TAAACCACGTGGGTTT

Relative binding free energy, 0.49 kcal/mol:
AAGTTCACGTGATGTT

Relative binding free energy, 0.29 kcal/mol:
GATCTCACGTGATGGG
GTGTTCACGTGTCGTG
TTCGACACGTGAAGGT
CTTTTCACGTGGTTCT

Relative binding free energy, 0.3 kcal/mol:
GTGGTCACGTGAATGG
TTTCTCACGTGATCGG

Relative binding free energy, 0.15 kcal/mol:
GGGGACACGTGTCGTC
AAGATCACGTGTTAGG
CTGGTCACGTGCGAGT
GTACACACGTGAGGGT
AAATACACGTGTAGTG
CTGTACACGTGTGTAT
CAGGTCACGTGGTTCT

Relative binding free energy, 0.44 kcal/mol:
AAGTTCACGTGTGGAC

Relative binding free energy, -0.2 kcal/mol:
TTTAACACGTGGGCGG
CGAGGCACGTGCGGTG

Relative binding free energy, 0.06 kcal/mol:
ACATACACGTGTGGGG
CATTTCACGTGATGTA
TTATACACGTGGATAG

Relative binding free energy, -0.08 kcal/mol:
TGTAGCACGTGTGTCA
GTTCGCACGTGGGCAT
ATATACACGTGGTAGA
GGGAGCACGTGCTTTT

Relative binding free energy, -0.07 kcal/mol:
GTGCGCACGTGGTGAC
CTAGGCACGTGTTTGA
TGAGGCACGTGGTGGC
ATTAGCACGTGCATTT

Relative binding free energy, 0.11 kcal/mol:
GATAGCACGTGATGTA
TGTCTCACGTGTTGAA
GAAGCCACGTGTGAGG
GTGTTCACGTGGGTCG

Relative binding free energy, -0.03 kcal/mol:
GGTAGCACGTGTTGAT
GGGGGCACGTGATGCG
TTATTCACGTGCTATT
GGATGCACGTGCTGAG
TTAAACACGTGTTGGC
TTTAGCACGTGGACAT
TATGGCACGTGCAGCG

Relative binding free energy, 0.37 kcal/mol:
GGGTTCACGTGGATGC
